The results in this text go back to US9833497B2, “Human originated EGF domain proteins and use of the same” (CHENGDU SOURCEBIO LIMITED-LIABILITY COMPANY, priority 2013, dated 2017).

By MIC is commonly meant the lowest concentration that inhibits growth of the organism. Higher therefore signals a need for much substance.

Common to all, as to assay type: cell-based
One assay relates to Enterobacter cloacae. Briefly: MIC against Gram-negative bacteria: Enterobacter cloacae. The note with it: 5×10^5 CFU/mL. The method, then:
(§1) 1. Gram-negative bacteria, such as E. coli BL21, Pseudomonas aeruginosa, Klebsiella pneumonia, Enterobacter cloacae, Aeromonas hydrophila, Citrobacter diversus, Moraxella catarrhalis, Proteus mirabilis, Proteus vulgaris, Serratia marcescens, etc were streaked on solid LB medium and cultured respectively. Then, typical clones were picked, inoculated into common liquid LB medium respectively, and cultured at 37° C. with shaking at 185 rpm until the McFarland specific turbidity was 0.5. The bacterial culture of each of Gram-negative bacteria was centrifuged at 4000×g for 3 min, the supernatant was discarded, and the thalli were resuspended with fresh LB medium.
(§2) 2. The above-mentioned bacterial suspensions were diluted and inoculated into 96-well plates with the final concentration of the bacterial suspension being 5×10^5 CFU/mL per well.
(§3) 3. Each of the purified human-originated EGF domain proteins (PRT1 to PRT1498 in Table 1) was added to each of the above wells and subjected to two-fold serial dilution in concentration. Three parallel wells were set up for each concentration in the gradient.
(§4) 4. The above-mentioned 96-well plates were placed and cultured at 37° C. in shaking incubator shaking at 175 rpm. […] The minimal inhibitory concentration MIC is defined as the lowest concentration of the recombinant protein at which there is no growth of the bacteria.

The next assay deals with E. coli DH5α. Briefly: Antibacterial activity: MIC and growth curve against E. coli DH5α in 96-well plate. The note with it: minimal inhibitory concentration against E. coli DH5α, 5×10^5 CFU/mL, 37° C., judged after 8 h. The method, then: 1. E. coli DH5α was exemplified. E. coli DH5α was streaked and cultured on LB solid medium. Then, a typical clone was picked and inoculated into common LB liquid medium, cultured at 37° C. with shaking at 185 rpm until the logarithmic growth phase was reached (OD600 of about 0.5). The bacterial culture was centrifuged at 4000×g for 3 min, the supernatant was discarded, and the thalli were resuspended with fresh LB medium.
2. The above-mentioned bacterial suspension was diluted and inoculated into a 96-well plate with the total volume of 100 μL per well and a bacterial count of 5×10^5 CFU/mL.
3. The recombinant protein hF VII-EGF1 was added to the above-mentioned wells with the final protein concentration in the well of the highest protein concentration being 50 μg/mL. Basing on this final concentration, a two-fold serial dilution was performed till a protein concentration gradient consisting of 50, 25, and 12.5 μg/mL was set up. Three parallel wells were set up for each concentration in the gradient.
4. The above-mentioned 96-well plate was placed and cultured at 37° C. in shaking incubator shaking at 175 rpm. Samples were taken every 30 min, the absorbance values were determined at 600 nm wavelength under a ultra violet spectrophotometer, and an inhibition curve was plotted. […] The minimal inhibitory concentration MIC is defined as the lowest concentration of the recombinant protein at which there is no growth of the bacteria.
According to the experimental procedures in Example 14, the minimal inhibitory concentrations (MIC, μg/mL) of the other human-originated EGF domain proteins (PRT2 to PRT1498 in Table 1) for E. coli DH5α were determined.

The next assay has as its system Aeromonas hydrophila. Kind of assay: MIC against Gram-negative bacteria: Aeromonas hydrophila. The note with it: 5×10^5 CFU/mL. The method, then:
as §1, §2, §3, §4

The next assay deals with Proteus mirabilis. Briefly: MIC against Gram-negative bacteria: Proteus mirabilis. Conditions: 5×10^5 CFU/mL. The method, then: as §1, §2, §3, §4
In the next assay the test system is Moraxella catarrhalis. Briefly: MIC against Gram-negative bacteria: Moraxella catarrhalis. Conditions: 5×10^5 CFU/mL. The method, then:
as §1, §2, §3, §4

Another assay concerns Serratia marcescens. Kind of assay: MIC against Gram-negative bacteria: Serratia marcescens. The note with it: 5×10^5 CFU/mL. The method, then: as §1, §2, §3, §4
The test system of a further assay is Proteus vulgaris. Kind of assay: MIC against Gram-negative bacteria: Proteus vulgaris. The note with it: 5×10^5 CFU/mL. How it is done:
as §1, §2, §3, §4

The subject of the next assay is Klebsiella pneumonia. Briefly: MIC against Gram-negative bacteria: Klebsiella pneumonia. Conditions: 5×10^5 CFU/mL. The method, then: as §1, §2, §3, §4
A further assay has as its system Citrobacter diversus. Briefly: MIC against Gram-negative bacteria: Citrobacter diversus. The note with it: 5×10^5 CFU/mL. The method, then:
as §1, §2, §3, §4

In a further assay the test system is Pseudomonas aeruginosa. Kind of assay: MIC against Gram-negative bacteria: Pseudomonas aeruginosa. Conditions: 5×10^5 CFU/mL. How it is done:
as §1, §2, §3, §4

For another assay, the system named is E. coli BL21. Kind of assay: MIC against Gram-negative bacteria: E. coli BL21. Conditions: 5×10^5 CFU/mL. The method, then: as §1, §2, §3, §4
[1] abbreviates: 10 h cultivation at 37° C., two-fold serial dilution.

Turning to “PRT1164 (DVNECLSNPCPSTAMCNNTQGSFICKCPVGYQLEKGICN; listed as Homo sapiens)”, the “MIC E. cloacae” value in the assay with Enterobacter cloacae (setting [1]) worked out at 12.5 µg/mL. In the assay with E. coli DH5α, this substance registered an MIC of 12.5 µg/mL. The “MIC A. hydrophila” value in the assay on Aeromonas hydrophila (setting [1]) is 25 µg/mL. For the same substance, the “MIC P. mirabilis” value with Proteus mirabilis (setting [1]) was found to be 50 µg/mL. For the same substance, the “MIC M. catarrhalis” value in the assay with Moraxella catarrhalis (setting [1]) came to 25 µg/mL. For the same substance, the “MIC S. marcescens” value with Serratia marcescens (setting [1]) was determined as 12.5 µg/mL. The “MIC P. vulgaris” value against Proteus vulgaris (setting [1]) was 25 µg/mL. For the same substance, the “MIC K. pneumonia” value with Klebsiella pneumonia (setting [1]) amounted to 12.5 µg/mL. Besides, the “MIC C. diversus” value against Citrobacter diversus (setting [1]) was 12.5 µg/mL. Also, in the assay with Pseudomonas aeruginosa (setting [1]), the “MIC P. aeruginosa” value was determined as 12.5 µg/mL. For the same substance, the “MIC E. coli BL21” value in the assay on E. coli BL21 (setting [1]) was determined as 12.5 µg/mL.

Turning to “PRT862 (CDCHPVGAAGKTCNQTTGQCPCKDGVTGLTCNRCAPGFQQSRSPVAPC; listed as Homo sapiens)”, the “MIC (μg/mL) E. cloacae” value against Enterobacter cloacae (10 h cultivation at 37° C.) stood at 12.5 µg/mL. In addition, the MIC in the assay on E. coli DH5α came out at 12.5 µg/mL. The “MIC (μg/mL) A. hydrophila” value against Aeromonas hydrophila (10 h cultivation at 37° C.) was 50 µg/mL. Also, the “MIC (μg/mL) P. mirabilis” value in the assay with Proteus mirabilis (10 h cultivation at 37° C.) stood at 50 µg/mL. Moreover, the “MIC (μg/mL) M. catarrhalis” value against Moraxella catarrhalis (10 h cultivation at 37° C.) was 12.5 µg/mL. In the assay on Serratia marcescens (10 h cultivation at 37° C.), the “MIC (μg/mL) S. marcescens” value was determined as 25 µg/mL. For the same substance, in the assay with Proteus vulgaris (10 h cultivation at 37° C.), the “MIC (μg/mL) P. vulgaris” value came out at 12.5 µg/mL. Besides, in the assay on Klebsiella pneumonia (10 h cultivation at 37° C.), the “MIC (μg/mL) K. pneumonia” value came out at 50 µg/mL. For the same substance, the “MIC (μg/mL) C. diversus” value with Citrobacter diversus (10 h cultivation at 37° C.) was found to be 25 µg/mL. Besides, the “MIC (μg/mL) P. aeruginosa” value in the assay with Pseudomonas aeruginosa (10 h cultivation at 37° C.) was determined as 12.5 µg/mL. Besides, the “MIC (μg/mL) E. coli BL21” value with E. coli BL21 (10 h cultivation at 37° C.) turned out to be 25 µg/mL.

Consider “PRT150 (NINECLSNPCLNGGTCVDGVDSFSCECTRLWTGALCQ; listed as Homo sapiens)”, for which the “MIC (μg/mL) E. cloacae” value against Enterobacter cloacae (10 h cultivation at 37° C.) is 12.5 µg/mL. The MIC in the assay on E. coli DH5α amounted to 25 µg/mL. The “MIC (μg/mL) A. hydrophila” value in the assay on Aeromonas hydrophila (10 h cultivation at 37° C.) amounted to 50 µg/mL. In addition, the “MIC (μg/mL) P. mirabilis” value with Proteus mirabilis (10 h cultivation at 37° C.) was 25 µg/mL. Moreover, the “MIC (μg/mL) M. catarrhalis” value with Moraxella catarrhalis (10 h cultivation at 37° C.) was 12.5 µg/mL. In addition, the “MIC (μg/mL) S. marcescens” value in the assay on Serratia marcescens (10 h cultivation at 37° C.) was 50 µg/mL. Moreover, the “MIC (μg/mL) P. vulgaris” value with Proteus vulgaris (10 h cultivation at 37° C.) turned out to be 25 µg/mL. Further, in the assay on Klebsiella pneumonia (10 h cultivation at 37° C.), the “MIC (μg/mL) K. pneumonia” value came out at 25 µg/mL. Besides, in the assay with Citrobacter diversus (10 h cultivation at 37° C.), the “MIC (μg/mL) C. diversus” value is 25 µg/mL. The “MIC (μg/mL) P. aeruginosa” value against Pseudomonas aeruginosa (10 h cultivation at 37° C.) was 25 µg/mL. For the same substance, in the assay with E. coli BL21 (10 h cultivation at 37° C.), the “MIC (μg/mL) E. coli BL21” value turned out to be 12.5 µg/mL.

In the case of “PRT868 (CQCHPIGATGGTCNQTSGQCTCKLGVTGLTCNRCGPGYQQSRSPRMPCQR; listed as Homo sapiens)”, the “MIC (μg/mL) E. cloacae” value in the assay with Enterobacter cloacae (10 h cultivation at 37° C.) worked out at 50 µg/mL. The minimal inhibitory concentration (MIC) against E. coli DH5α worked out at 12.5 µg/mL. For the same substance, the “MIC (μg/mL) A. hydrophila” value with Aeromonas hydrophila (10 h cultivation at 37° C.) worked out at 25 µg/mL. Also, the “MIC (μg/mL) P. mirabilis” value with Proteus mirabilis (10 h cultivation at 37° C.) stood at 50 µg/mL. Moreover, in the assay with Moraxella catarrhalis (10 h cultivation at 37° C.), the “MIC (μg/mL) M. catarrhalis” value was found to be 25 µg/mL. The “MIC (μg/mL) S. marcescens” value against Serratia marcescens (10 h cultivation at 37° C.) is 12.5 µg/mL. In the assay with Proteus vulgaris (10 h cultivation at 37° C.), the “MIC (μg/mL) P. vulgaris” value was found to be 12.5 µg/mL. Besides, the “MIC (μg/mL) K. pneumonia” value with Klebsiella pneumonia (10 h cultivation at 37° C.) stood at 25 µg/mL. Also, the “MIC (μg/mL) C. diversus” value in the assay with Citrobacter diversus (10 h cultivation at 37° C.) turned out to be 12.5 µg/mL. In the assay on Pseudomonas aeruginosa (10 h cultivation at 37° C.), the “MIC (μg/mL) P. aeruginosa” value came out at 12.5 µg/mL. Moreover, the “MIC (μg/mL) E. coli BL21” value in the assay on E. coli BL21 (10 h cultivation at 37° C.) is 50 µg/mL.

In the case of “PRT611 (CACNGHSETCDPETGVCNCRDNTAGPHCEKCSDGYYGDSTAGTSSDCQP; listed as Homo sapiens)”, the “MIC E. cloacae” value against Enterobacter cloacae (96-well plate, 37° C., 10 h) amounted to 12.5 µg/mL. In the assay with E. coli DH5α, the MIC was 12.5 µg/mL. Besides, the “MIC A. hydrophila” value in the assay on Aeromonas hydrophila (96-well plate, 37° C., 10 h) was found to be 25 µg/mL. Also, in the assay with Proteus mirabilis (96-well plate, 37° C., 10 h), the “MIC P. mirabilis” value amounted to 12.5 µg/mL. Also, the “MIC M. catarrhalis” value against Moraxella catarrhalis (96-well plate, 37° C., 10 h) was found to be 25 µg/mL. For the same substance, the “MIC S. marcescens” value against Serratia marcescens (96-well plate, 37° C., 10 h) came out at 50 µg/mL. In addition, the “MIC P. vulgaris” value in the assay with Proteus vulgaris (96-well plate, 37° C., 10 h) is 25 µg/mL. Moreover, in the assay on Klebsiella pneumonia (96-well plate, 37° C., 10 h), the “MIC K. pneumonia” value amounted to 25 µg/mL. Further, the “MIC C. diversus” value in the assay with Citrobacter diversus (96-well plate, 37° C., 10 h) was found to be 50 µg/mL. In the assay with Pseudomonas aeruginosa (96-well plate, 37° C., 10 h), the “MIC P. aeruginosa” value was determined as 50 µg/mL. For the same substance, the “MIC E. coli BL21” value against E. coli BL21 (96-well plate, 37° C., 10 h) was 25 µg/mL.
